Reference: PubChem BioAssay AID1814 (Broad Institute, 2009)
The whole screen tested about 300,000 compounds, of which about 22,000 (7.3%) were called active. This list was built around the results that the source calls inconclusive (neither active nor inactive); the mix of calls is not that of the screen. Rule as the data show it: active = activity score below about -60%; inconclusive = mostly about -28% to -61%; inactive = positive scores.

experiment: Activators via SNCA 5'UTR binding, MLPCN (AID 1814); conditions: alpha-synuclein 5'UTR reporter, activators screen; hits give low values; tested at 7.5 µM

Activity score, active:
N/C(=N\OC(=O)CCCc1ccccc1)c1ccccn1 -68.6%
Cc1ccc(/C(N)=N/OC(=O)c2ccc3ccccc3c2)cc1 -124%
CCCC(=O)c1ccc(-c2ccccc2)cc1 -70.1%
Cc1ccc(/C=C2/CCc3c([nH]c4ccccc34)C2=O)cc1 -180%
N/C(=N\OC(=O)Nc1ccc(Cl)cc1)c1ncc(C(F)(F)F)cc1Cl -72.9%
COC(=O)Nc1nc2ccc(Br)cc2s1 -148%
Cc1ccccc1Nc1c(-c2ccc(N3CCOCC3)cc2)nc2cnccn12 -66.9%
CCOC(=O)c1ccc(-c2ccc(/C=N/NC(=O)CN(c3ccccc3Cl)S(C)(=O)=O)o2)cc1 -153%
COc1ccc(-c2csc(Nc3cc(C)ccn3)n2)cc1OC -236%
Cc1ccc(NCCC(=O)c2ccc(Cl)cc2)cc1 -119%
CCCCC(=O)Nc1nc2c(s1)COc1ccccc1-2 -107%
CC(=O)c1ccc(NC(=S)NCCc2ccc(S(N)(=O)=O)cc2)cc1 -79.6%
Cc1cccc2c1OCC/C2=N\NC(=O)COc1ccccc1Cl -79.1%
CCOC(=O)/C(C#N)=C/c1ccc(N2CCCCC2)cc1 -72.9%
CCCCOc1ccc(C(=S)N2CCC(C(N)=O)CC2)cc1 -85.9%
Cc1ccc(SCC(=O)c2cc(C)c(OC(=S)N(C)C)c(C)c2)cc1 -155%

Activity score, inactive:
CCOC(=O)CNC(=O)CSc1nnc(NC(=O)c2ccc(C)cc2)s1 73.9%
O=C(Nc1ccc(NC(=O)c2ccco2)cc1)c1ccc2c(c1)OCCO2 60.9%
CCn1c(C)nc2cc(C(=O)N/N=C(\C)c3ccc(OC)cc3O)ccc21 83.9%
Cc1ccc(NC(=O)Nc2ccnc(-c3cccnc3)n2)cc1 110%
CC(C)CCNc1nnnc2c1sc1nc(N3CCOCC3)c3c(c12)CC(C)(C)SC3 59.7%
COc1cccc(N2C(N)=NC(N)=NC2(C)C)c1 95.9%
COc1cccc(/C=N/NC(=O)c2ccc(-c3ccccc3)cc2)c1O 75.8%
O=C(CCCN1C(=O)/C(=C/c2ccccc2Cl)SC1=S)NNC(=O)c1ccccc1 62.1%
O=C(N/N=C(\c1ccccc1)c1ccccn1)c1ccccc1Cl 67.5%
Fc1ccc(-n2nnc(-c3cnc4ccccc4c3)n2)cc1 93.8%
O=C(c1ccccc1)N1C(=O)C(c2ccccc2)Oc2ccccc21 (centres undefined) 81.7%
COc1ccc(Nc2oc(COc3ccccc3OC)nc2C#N)cc1 98.3%
COc1ccc(-n2nc3c(N4CCC(C(=O)NCc5cccc(C)c5)CC4)nnc(C)c3c2C)cc1 69.7%
CCOc1ccc(C(=O)CSCCC(=O)O)cc1 68.3%
O=C(Nc1cccc(O)c1)c1noc2c1CCCCC2 56.9%
Cc1ccc(-c2nc(C(Cl)Cl)c3ccccc3n2)cc1 92.7%
CC(=O)N(C)C1=C(N2CCOCC2)C(=O)c2ccccc2C1=O 76.2%
Cc1ccc(NC(=S)c2ccc(N(C)C)cc2)cc1 54.9%
CCN(CC)c1ccc(/C=N/NC(=O)c2nnn(-c3nonc3N)c2C(C)C)c(O)c1 92%
O=C1CCCc2c1[nH]c1ccc(Br)cc21 89%
O=c1c2c(nc3c(-c4ccc(Cl)cc4)c[nH]n13)CCCC2 66%
COc1ccccc1N1CCN(S(=O)(=O)CCNC(=O)c2cc(OC)c(OC)c(OC)c2)CC1 60.8%
Cn1cc(/C=N/n2cnc3scc(-c4ccccc4)c3c2=O)c2ccccc21 66.4%
CCN(CC)CCNC(=O)c1ccc2c(c1NCCO)C(=O)c1ccccc1C2=O 95.6%
O=C(N/N=C/c1cccnc1)c1ccc(NC(=O)C(c2ccccc2)c2ccccc2)cc1 111%
CC(=O)Nc1ccc(NC(=O)CN(c2cccc([N+](=O)[O-])c2)S(C)(=O)=O)cc1 68.6%
O=C1C(Cl)=C(NCCN2CCCCC2)C(=O)c2ccccc21 54%
CCCC(NCC(O)COc1ccc(-c2ccccc2)cc1)c1ccccc1 (centres undefined) 82.8%

Activity score, inconclusive:
Cc1ccc(NC(=O)CCCNC(=O)c2ccc(Cl)cc2)nc1 -46.3%
COC(=O)c1cc(NC(=O)Nc2ccccc2)ccc1Cl -55.1%
Cc1ccc(NC(CC(=O)c2ccccc2)c2ccc(F)cc2)cc1 (centres undefined) -38.5%
CCOC(=O)C1(CC2CC2)CCN(C(=O)c2cc(OC)nc3ccccc23)CC1 -57.6%
CNC(=O)c1ccsc1NC(=O)CCS(=O)(=O)c1ccccc1 -53.3%
Cc1ccc(NCc2ccccc2F)cc1 -58.8%
COc1ccc2c(c1)c(=O)cc(-c1ccccc1)n2C -57.9%
CCOc1cc(/C=C2/SC(=S)N(CC3CCCO3)C2=O)ccc1O (centres undefined) -52.6%
O=C(Nc1cccnc1)c1cc(-c2ccc(Cl)cc2)on1 -56.2%
CCCNC(=O)/C=C/c1ccc(C(C)C)cc1 -59.9%
Cc1cccnc1NC(=S)NC(=O)/C=C/c1ccccc1 -63%
COc1ccc(C(=O)CC(SCC(NC(C)=O)C(=O)O)c2ccc(Cl)cc2)cc1OC (centres undefined) -49.4%
O=C(COC(=O)c1c(Cl)cccc1Cl)Nc1ccccc1Br -27.9%
CCC(=O)n1nc(-c2ccccc2)nc1NCc1ccccc1 -60.2%
Cc1n[nH]c(C)c1N=Nc1ccc(Br)cc1 -42.4%
Nc1cc(N)nc(SCC(=O)c2ccccc2)n1 -52.2%
CCNC(=O)N1CCCC(C(=O)c2ccc3cc(OC)ccc3c2)C1 (centres undefined) -53%
CC(=O)Nc1ccc(C(=O)Nc2nc(-c3ccccn3)cs2)cc1 -46%
CN1CC(c2ccccn2)C2(SC(=S)N(Cc3ccccc3)C2=O)C12C(=O)Nc1ccccc12 (centres undefined) -45%
CC(=O)Nc1nc(CC(=O)c2ccccc2)cs1 -60.1%
COC(=O)c1cc(CSc2ncnc3sccc23)oc1C -43.7%
O=S(=O)(NCC1CCCO1)c1ccc(NS(=O)(=O)c2ccc(F)cc2)cc1 (centres undefined) -44.1%
COc1ccccc1NCC(=O)N/N=C/C=C/c1ccccc1 -48.9%
Cc1no[n+]([O-])c1COc1ccc(/C=N/n2nnnc2N)cc1 -58.8%
CC(=O)c1ccc(NC(=O)C2CCCN(C(=O)c3ccc(Cl)cc3)C2)cc1 (centres undefined) -49.1%
Clc1cnc2nc(SC/C=C/c3ccccc3)[nH]c2c1 -53.6%
NCCc1nnc(SCc2c(F)cccc2Cl)o1 -60.7%
Cc1cccc(OCC(=O)NC(=S)Nc2ccc(S(=O)(=O)NC3CCCCC3)cc2)c1 -27.4%
COCCCNC(=O)CCc1nnc(Cc2ccc(-c3ccccc3)cc2)o1 -23.4%
Cc1ccc(NCCC(=O)c2ccc(Br)cc2)cc1 -60.2%
Cc1ccc(Nc2c([N+](=O)[O-])c(=O)oc3ccccc23)cc1C -56.9%
Cc1c(Cl)cccc1NC(=O)CSC(N)=O -31.4%
COc1cc(-c2c(-c3ccc4c(c3)OCO4)noc2C)ccc1F -60.4%
Cc1ccccc1NC(=O)c1ccc(NC(=O)C2CCCO2)cc1 (centres undefined) -41.8%
CC1CCCCN1C(=O)CSc1nc2ccccc2[nH]1 (centres undefined) -58.1%
O=C(CCS(=O)(=O)c1cccs1)N1CCN(c2ccc(F)cc2)CC1 -45.2%
CCOc1ccccc1C1CC(c2ccc(Br)cc2)Nc2nc(N)nn21 (centres undefined) -52.8%
COc1ccc(-c2cc(C(=O)Nc3ccccc3)on2)cc1 -42.5%
NC(=O)COC(=O)c1ccc2noc(-c3ccccc3)c2c1 -57.4%
CC1CCCC(C)N1C(=O)CSc1ccc(-c2ccc3c(c2)OCCO3)nn1 (centres undefined) -53.8%
Cc1cccc(Oc2c([N+](=O)[O-])c(=O)n(C)c3ccccc23)c1 -52.9%
O=C(N/N=C/c1cccn1-c1cccc(C(=O)O)c1)Nc1ccccc1 -50.2%
CCOC(=O)Cn1cnc2c(sc3nc(C)cc(C)c32)c1=O -60.3%
Cc1ccc(C2C(C(=O)c3cccs3)=C(O)C(=O)N2c2cccc(C)n2)cc1 (centres undefined) -46.9%
O=C(C1=NN[C@@H]2C(=O)N(Cc3ccccc3)C(=O)[C@H]12)c1ccc([N+](=O)[O-])cc1 -32.6%
Cc1cc(N2CCOCC2)ccc1/C=C1\NC(=O)N(CC(=O)Nc2ccc(F)cc2)C1=O -56.9%
CCOC(=O)CN1Cc2cccc(C(=O)O)c2C1=O -54.2%
COc1ccccc1N1CCN(C(=O)CN2C(=O)C3CCCCC3C2=O)CC1 (centres undefined) -55%
COc1ccc(C(=O)Nc2ccc3[nH]ncc3c2)cc1 -53.1%
Cc1ccc(O)c(NC(=S)NC(=O)CC(C)C)c1 -60.8%
